# The other results are listed elsewhere or left out.
# B1: Arath Fbox LD (Arabidopsis thaliana) (protein)
# chain: EFSVWLEKASGKRCLMLSAMNLSIIWGDNPQYWQWIPIPESRFEKVAKLRDVCWFEIRGRTNTRVLSPRTRYSAYIVFKGVDKCYGFQNVAIEAAVGVVGQEPSRRLICFSEAIRRGRRNVVKPKQREDGWMEIELGEFFNDGGIMDNDEIEMSALETKQLNRKCGLIIQGIEIRPAKILAAASFLEQKLISEEDLNSAVDHHHHHH
# How the values were obtained:
# Experiment in all cases: glycan array binding signal (z-score within array); higher = stronger binding
# Settings in all cases: glycan notation: IUPAC condensed, linker removed
# Gal(b1-4)Glc = biological target: Gal(b1-4)Glc
# Procedure, shortened: (§1)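 Glycan array data came from 3228 arrays in the Consortium for Functional Glycomics database, and only arrays with an available protein sequence were kept. Glycan names were put into IUPAC-condensed notation, and columns mapping to the same glycan were averaged. The binding signal is a within-array Z-score, averaged across arrays of one protein sequence run at different concentrations or buffers and across linkers. A negative Z-score can be read as non-binding.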
# Gal(b1-4)Glc6S = biological target: Gal(b1-4)Glc6S
# Procedure, shortened: as §1
# Gal(b1-4)GlcNAc = biological target: Gal(b1-4)GlcNAc
# Procedure, shortened: as §1
# [1] = biological target: Gal(b1-4)GlcNAc(a1-6)Gal(b1-4)GlcNAc
# Procedure, shortened: as §1
# Gal(b1-4)GlcNAc(b1-2)Man = biological target: Gal(b1-4)GlcNAc(b1-2)Man
# Procedure, shortened: as §1
# [2] = biological target: Gal(b1-4)GlcNAc(b1-2)Man(a1-3)Man(b1-4)GlcNAc(b1-4)GlcNAc
# Procedure, shortened: as §1
# [3] = biological target: Gal(b1-4)GlcNAc(b1-2)Man(a1-3)[Gal(b1-4)GlcNAc(b1-2)Man(a1-6)]Man(b1-4)GlcNAc(b1-4)GlcNAc
# Procedure, shortened: as §1
# [4] = biological target: Gal(b1-4)GlcNAc(b1-2)Man(a1-3)[Gal(b1-4)GlcNAc(b1-2)Man(a1-6)]Man(b1-4)GlcNAc(b1-4)[Fuc(a1-6)]GlcNAc
# Procedure, shortened: as §1
# [5] = biological target: Gal(b1-4)GlcNAc(b1-2)Man(a1-3)[Gal(b1-4)GlcNAc(b1-2)Man(a1-6)][Gal(b1-4)GlcNAc(b1-4)]Man(b1-4)GlcNAc(b1-4)[Fuc(a1-6)]GlcNAc
# Procedure, shortened: as §1
# [6] = biological target: Gal(b1-4)GlcNAc(b1-2)Man(a1-3)[Gal(b1-4)GlcNAc(b1-2)Man(a1-6)][GlcNAc(b1-4)]Man(b1-4)GlcNAc(b1-4)[Fuc(a1-6)]GlcNAc
# Procedure, shortened: as §1
# [7] = biological target: Gal(b1-4)GlcNAc(b1-2)Man(a1-3)[GlcNAc(b1-2)Man(a1-6)]Man(b1-4)GlcNAc(b1-4)GlcNAc
# Procedure, shortened: as §1
# [8] = biological target: Gal(b1-4)GlcNAc(b1-2)Man(a1-3)[GlcNAc(b1-4)][Gal(b1-4)GlcNAc(b1-2)Man(a1-6)]Man(b1-4)GlcNAc(b1-4)GlcNAc
# Procedure, shortened: as §1
# [9] = biological target: Gal(b1-4)GlcNAc(b1-2)Man(a1-3)[Man(a1-6)]Man(b1-4)GlcNAc(b1-4)GlcNAc
# Procedure, shortened: as §1
# [10] = biological target: Gal(b1-4)GlcNAc(b1-2)Man(a1-6)Man(b1-4)GlcNAc(b1-4)GlcNAc
# Procedure, shortened: as §1
# [11] = biological target: Gal(b1-4)GlcNAc(b1-2)Man(a1-6)[GlcNAc(b1-2)Man(a1-3)]Man(b1-4)GlcNAc(b1-4)GlcNAc
# Procedure, shortened: as §1
# [12] = biological target: Gal(b1-4)GlcNAc(b1-2)Man(a1-6)[Man(a1-3)]Man(b1-4)GlcNAc(b1-4)GlcNAc
# Procedure, shortened: as §1
# [13] = biological target: Gal(b1-4)GlcNAc(b1-2)[Gal(b1-4)GlcNAc(b1-4)]Man(a1-3)[Gal(b1-4)GlcNAc(b1-2)Man(a1-6)]Man(b1-4)GlcNAc(b1-4)GlcNAc
# Procedure, shortened: as §1
# [14] = biological target: Gal(b1-4)GlcNAc(b1-2)[Gal(b1-4)GlcNAc(b1-4)]Man(a1-3)[Gal(b1-4)GlcNAc(b1-2)[Gal(b1-4)GlcNAc(b1-6)]Man(a1-6)]Man(b1-4)GlcNAc(b1-4)GlcNAc
# Procedure, shortened: as §1
# [15] = biological target: Gal(b1-4)GlcNAc(b1-2)[Gal(b1-4)GlcNAc(b1-4)]Man(a1-3)[GlcNAc(b1-4)][Gal(b1-4)GlcNAc(b1-2)Man(a1-6)]Man(b1-4)GlcNAc(b1-4)GlcNAc
# Procedure, shortened: as §1
# [16] = biological target: Gal(b1-4)GlcNAc(b1-2)[Gal(b1-4)GlcNAc(b1-4)]Man(a1-3)[GlcNAc(b1-4)][Gal(b1-4)GlcNAc(b1-2)[Gal(b1-4)GlcNAc(b1-6)]Man(a1-6)]Man(b1-4)GlcNAc(b1-4)GlcNAc
# Procedure, shortened: as §1
# [17] = biological target: Gal(b1-4)GlcNAc(b1-2)[Gal(b1-4)GlcNAc(b1-6)]Man(a1-6)[Gal(b1-4)GlcNAc(b1-2)Man(a1-3)]Man(b1-4)GlcNAc(b1-4)GlcNAc
# Procedure, shortened: as §1
# [18] = biological target: Gal(b1-4)GlcNAc(b1-2)[Gal(b1-4)GlcNAc(b1-6)]Man(a1-6)[Gal(b1-4)GlcNAc(b1-2)Man(a1-3)]Man(b1-4)GlcNAc(b1-4)[Fuc(a1-6)]GlcNAc
# Procedure, shortened: as §1
binder,measurement,setting,value
B1,glycan array binding signal (z-score),Gal(b1-4)Glc,-0.358
same,glycan array binding signal (z-score),Gal(b1-4)Glc6S,1.18
same,glycan array binding signal (z-score),Gal(b1-4)GlcNAc,-0.533
same,glycan array binding signal (z-score),[1],-0.528
same,glycan array binding signal (z-score),Gal(b1-4)GlcNAc(b1-2)Man,-0.21
same,glycan array binding signal (z-score),[2],-0.442
same,glycan array binding signal (z-score),[3],-0.446
same,glycan array binding signal (z-score),[4],-0.393
same,glycan array binding signal (z-score),[5],-0.643
same,glycan array binding signal (z-score),[6],-0.517
same,glycan array binding signal (z-score),[7],-0.522
same,glycan array binding signal (z-score),[8],0.368
same,glycan array binding signal (z-score),[9],-0.327
same,glycan array binding signal (z-score),[10],-0.564
same,glycan array binding signal (z-score),[11],-0.389
same,glycan array binding signal (z-score),[12],-0.2
same,glycan array binding signal (z-score),[13],-0.356
same,glycan array binding signal (z-score),[14],-0.33
same,glycan array binding signal (z-score),[15],-0.219
same,glycan array binding signal (z-score),[16],0.792
same,glycan array binding signal (z-score),[17],-0.064
same,glycan array binding signal (z-score),[18],-0.56

# — the supplement of paper PMC8728848
